Results taken from PubChem BioAssay (Tox21).
Values joined by “and” are separate entries in the source; they are usually repeats but may differ in a detail not shown here. Equal values may be shown once. Inconclusive results, whose numbers are uncertain, are shown with a selection of clear calls. Where the call is inconclusive, the potency comes from a doubtful curve fit. Active and inactive are the calls of the source. Unless noted, calls come from the whole dose curve; as a rule, active = well fitted curve in the direction sought with a large enough effect in the repeat runs; inconclusive = weak or mixed curves; inactive = no such curve, though single readings can be large; an effect the other way counts as inactive or inconclusive.

Assays:
[1] = qHTS assay to identify small molecule agonists of the constitutive androstane receptor (CAR) signaling pathway - cell viability counter screen (AID 1224836); note: nearly all actives have a fitted effect of over 45% in size
Method in brief: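 Cells were seeded and incubated 4 hrs. Compounds were added across 15 concentrations together with PK11195 at 0.75 uM final. Plates were incubated 23 hrs at 37 C. CellTiter-Fluor was added and fluorescence measured.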

[2] = qHTS assay to identify small molecule antagonists of the constitutive androstane receptor (CAR) signaling pathway - cell viability counter screen (AID 1224837); note: nearly all actives have a fitted effect of over 45% in size
Method in brief: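 CITCO at 50 nM final was added alongside compounds (15 concentrations) to double-stable hCAR/CYP2B6-2.2kb HepG2 cells. Following 23 hr at 37 C, cell viability was quantified by CellTiter-Fluor fluorescence intensity.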

[3] = biological target: Nuclear receptor subfamily 1 group I member 3 (Homo sapiens) (UniProt Q14994); experiment: qHTS assay to identify small molecule antagonists of the constitutive androstane receptor (CAR) signaling pathway (AID 1224838); note: nearly all actives have a fitted effect of over 40% in size
Sequence of UniProt Q14994 (Q14994 whole entry, looked up): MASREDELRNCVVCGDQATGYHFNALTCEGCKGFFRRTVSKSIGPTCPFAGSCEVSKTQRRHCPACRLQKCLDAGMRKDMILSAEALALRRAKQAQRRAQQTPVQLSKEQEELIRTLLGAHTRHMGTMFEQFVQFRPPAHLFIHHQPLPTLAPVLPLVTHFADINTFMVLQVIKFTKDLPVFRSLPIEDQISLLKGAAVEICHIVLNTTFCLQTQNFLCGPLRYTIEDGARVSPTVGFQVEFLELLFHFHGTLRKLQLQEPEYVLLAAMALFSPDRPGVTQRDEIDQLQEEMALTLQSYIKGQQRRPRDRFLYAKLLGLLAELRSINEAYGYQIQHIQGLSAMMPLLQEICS
Method in brief: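 Inhibition of CITCO-driven (50 nM final) CYP2B6 reporter expression is measured in HepG2 cells stably carrying hCAR. Fifteen compound concentrations are applied for 24 h at 37 C, followed by luciferase luminescence.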

[4] = qHTS assay to identify small molecule antagonists of the estrogen related receptor signaling pathway with the pleiotropic PPARgamma coactivator (PGC) from Tox21 10K library - cell viability counter screen (AID 1224840; active = well fitted cell-killing curve with a large enough effect in the repeat runs, not every such curve was filed as active; inconclusive = weak or mixed curves, or effect the other way; inactive = no such curve, though single readings can be large or run the other way; note: nearly all actives have a fitted effect of over 40% in size)
Method in brief: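 Readout: fluorescence intensity from CellTiter-Fluor after 30 min at 37 C/5% CO2. Preceded by 17.5 h treatment of PGC/ERR cells with DMSO-dissolved compounds, added 6 h post-seeding.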

[5] = qHTS RealTime-Glo MT Cell Viability Assay in HepG2 cells - 24 hour (AID 1224867); note: nearly all actives have a fitted effect of over 50% in size
Method in brief: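 qHTS, HepG2, 600 cells/well, RealTime-Glo (NanoLuc + prosubstrate) added with cells; 5 h preincubation; DMSO compound addition; 37 C; luminescence at 0/8/16/24/32/40 h.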

[6] = qHTS assay to identify small molecule agonists of the estrogen related receptor signaling pathway with the pleiotropic PPARgamma coactivator (PGC) from Tox21 10K library (AID 1224842); note: nearly all actives have a fitted effect of over 15% in size
Method in brief: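 PGC/ERR reporter cell line, 2,000 cells per well, incubated 6 h at 37 C before 23 nL compound in DMSO was added. After 18 h at 37 C, One-Glo luminescence read following 30 min at room temperature.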

[7] = biological target: Thyrotropin receptor (Homo sapiens) (UniProt P16473); experiment: qHTS assay to identify small molecule agonists of the thyroid stimulating hormone receptor (TSHR) signaling pathway (AID 1224843; calls by dose curve; note: nearly all actives have a fitted effect of over 45% in size; for activation: % is set by controls: 0 for no effect and ±100 for the full control effect); settings: TSHR-HEK293 cells, cAMP HTRF, agonist mode, 30 min; activation: at 92.4 µM (top of the series) unless noted
Sequence of UniProt P16473 (P16473 whole entry, looked up): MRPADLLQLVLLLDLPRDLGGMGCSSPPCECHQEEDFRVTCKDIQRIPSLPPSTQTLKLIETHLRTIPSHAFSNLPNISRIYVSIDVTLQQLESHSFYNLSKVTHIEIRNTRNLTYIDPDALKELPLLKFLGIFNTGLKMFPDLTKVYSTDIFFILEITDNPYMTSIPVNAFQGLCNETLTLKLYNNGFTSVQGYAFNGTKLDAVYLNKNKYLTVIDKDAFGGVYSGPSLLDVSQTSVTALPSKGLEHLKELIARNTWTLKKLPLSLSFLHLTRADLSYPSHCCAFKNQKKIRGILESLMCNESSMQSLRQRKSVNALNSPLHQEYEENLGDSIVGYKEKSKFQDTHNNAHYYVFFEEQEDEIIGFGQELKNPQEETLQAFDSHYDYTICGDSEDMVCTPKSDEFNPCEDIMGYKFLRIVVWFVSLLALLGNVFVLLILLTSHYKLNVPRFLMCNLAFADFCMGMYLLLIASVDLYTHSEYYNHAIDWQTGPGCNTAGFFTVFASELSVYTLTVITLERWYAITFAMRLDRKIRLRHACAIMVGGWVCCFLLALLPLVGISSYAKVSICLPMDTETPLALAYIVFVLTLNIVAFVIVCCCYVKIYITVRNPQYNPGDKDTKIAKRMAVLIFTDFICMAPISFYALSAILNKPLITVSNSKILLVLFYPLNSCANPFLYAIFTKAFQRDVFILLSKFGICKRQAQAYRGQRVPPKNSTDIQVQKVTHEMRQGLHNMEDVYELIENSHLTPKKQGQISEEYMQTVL
Method in brief: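 HEK293/TSHR, 800 cells/well; cpd 30 min RT; add cAMP-d2 + anti-cAMP-cryptate, 1 h RT; fluorescence read on plate reader. 15-pt titration, n=3.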

[8] = qHTS assay to identify small molecule agonists of the hypoxia (HIF-1) signaling pathway - cell viability counter screen (AID 1224844; calls by dose curve; note: nearly all actives have a fitted effect of over 50% in size)
Method in brief: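 In this counter screen, HRE-bla ME-180 cell viability after 17 hrs of compound exposure at 37C was read by CellTiter-Glo luminescence, multiplexed with the beta-lactamase reporter measurement.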

[9] = qHTS assay to identify small molecule agonists of H2AX (AID 1224845; active = well fitted activation curve with a large enough effect in the signal ratio in the repeat runs, not every such curve was filed as active; inconclusive = weak or mixed curves; the % refers to the signal ratio; for activation (H2AX phosphorylation): % is set by controls: 0 for no effect and ±100 for the full control effect); settings: CHO-K1 phospho-H2AX Ser139 HTRF, 3 h; activation (H2AX phosphorylation): at 154 µM (top of the series) unless noted
Method in brief: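 Wild-type CHO-K1 cells, plated overnight, exposed 3hr at 37C to 15 concentrations (0.76% DMSO final). Lysed, then HTRF anti-pH2AX (S139) cryptate and anti-H2AX-d2 antibodies, 24 hr room temperature; 665/620 nm emission read.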

[10] = qHTS assay to identify small molecule agonists of the hypoxia (HIF-1) signaling pathway (AID 1224846; active = well fitted activation curve with a large enough effect in the signal ratio in the repeat runs, not every such curve was filed as active; inconclusive = weak or mixed curves; the % refers to the signal ratio; for activation: % is set by controls: 0 for no effect and ±100 for the full control effect); settings: HRE-bla ME-180 cells, beta-lactamase ratio, 17 h; activation: at 76.8 µM (top of the series) unless noted
Method in brief: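 ME-180 HRE-bla reporter cells; compounds in DMSO, 17 h at 37C; read-out beta-lactamase via CCF4-AM FRET.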

[11] = qHTS RealTime-Glo MT Cell Viability Assay in HEK293 cells - 32 hour (AID 1224868); note: nearly all actives have a fitted effect of over 50% in size
Method in brief: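 Assay medium contained NanoLuc luciferase plus cell-permeant prosubstrate, added with HEK293 cells at 600 cells/well. After 5 h at 37 C/5% CO2 compounds were added; plates stayed at 37 C for 40 h with serial luminescence reads.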

[12] = biological target: Nuclear receptor subfamily 1 group I member 3 (Homo sapiens) (UniProt Q14994); experiment: qHTS assay to identify small molecule agonists of the constitutive androstane receptor (CAR) signaling pathway (AID 1224839); note: nearly all actives have a fitted effect of over 15% in size; for activation: % is set by controls: 0 for no effect and ±100 for the full control effect
Method in brief: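 Cells were plated and incubated 4 hrs, then dosed with compounds at 15 concentrations. PK11195 was added to 0.75 uM final. After 24 hrs at 37 C, luciferase luminescence was measured.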

[13] = qHTS assay to identify small molecule antagonists of the estrogen related receptor signaling pathway with the pleiotropic PPARgamma coactivator (PGC) from Tox21 10K library (AID 1224841; call rule not given here; note: actives are mostly falling curves and most rising ones were filed inactive; nearly all actives have a fitted effect of over 50% in size)
Method in brief: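 One-Glo luminescence, measured after half an hour at room temperature, quantified reporter output of PGC/ERR cells. These had been plated at 2,000 per well, incubated 6 h, dosed with compounds in DMSO, then kept 18 h at 37 C.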

[14] = qHTS assay to identify small molecule agonists of H2AX - cell viability counter screen (AID 1224847; calls by dose curve; note: nearly all actives have a fitted effect of over 30% in size)
Method in brief: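 Cytotoxicity counter screen in wild-type CHO-K1 cells: a 3 hr compound treatment at 37C across 15 concentrations, followed by CellTiter-Glo luminescence to gauge viable cells.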

[15] = qHTS assay to identify small molecule antagonists of the estrogen related receptor (ERR) signaling pathway from Tox21 library (AID 1224848); note: nearly all actives have a fitted effect of over 50% in size
Method in brief: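 Compounds dissolved in DMSO are pin-transferred onto ERR reporter cells (2,000 per well) that have settled for 6 h at 37 C. Plates then incubate 18 h at 37 C before ONE-Glo luciferase reagent and a luminescence read 30 min later.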
Potency is the fitted concentration of half-maximal effect; tags give direction and shape of the fitted curve or compound fluorescence and quenching.

CCOc1ccc(N=Nc2ccc(/C=C/c3ccc(N=Nc4ccc(OCC)cc4)cc3S(=O)(=O)O)c(S(=O)(=O)O)c2)cc1
Potency [1]: active: 24 µM
Potency [2]: active: 21.4 µM
Potency [3]: inconclusive: 42.6 µM [inhibitor, partial curve, poor fit]
Potency [4]: active: 47.8 µM
Potency [5]: inconclusive: 30.4 µM [falling, partial curve, poor fit]

CC(=O)CC(=O)c1ccccc1
Potency [1]: inconclusive: 38.8 µM [cytotoxic, partial curve]
Potency [2]: inconclusive: 24.5 µM [cytotoxic, partial curve]
Potency [3]: active: 10.9 µM
Potency [6]: inconclusive: 34.6 µM [activator, partial curve]
activation [7]: inconclusive: -23.8%
Potency [8]: inconclusive: 49.3 µM [cytotoxic, single point]
Potency [9]: inconclusive: 101 µM [activator]
Potency [10]: inactive
Potency [11]: inconclusive: 24.7 µM [cytotoxic, full curve]

Cc1ccc(C2OC[C@@H]3OC(c4ccc(C)cc4)O[C@H]([C@H](O)CO)[C@@H]3O2)cc1 (some centres undefined)
Potency [1]: inactive
Potency [11]: inconclusive: 54.9 µM [rising, partial curve]

c1ccc(-c2nc3ccccc3[nH]2)cc1
Potency [1]: inconclusive: 68.6 µM [cytotoxic, partial curve, poor fit]
activation [7]: inconclusive: -0.629%

NC(N)=NC(=O)c1nc(Cl)c(N)nc1N
Potency [1]: inconclusive: 61.5 µM [cytotoxic, single point] and inconclusive: 63.5 µM [cytotoxic, single point]
Potency [2]: inconclusive: 48.9 µM [cytotoxic, partial curve] and inconclusive: 50.4 µM [cytotoxic, partial curve]
activation [7]: inconclusive: -25.9%

CN1C(=O)N(C)C(O)C1O (centres undefined)
Potency [1]: inactive
Potency [12]: inactive
Potency [9]: inactive

CC(=O)Oc1cccc(C)c1
Potency [1]: inactive
Potency [13]: inactive

Cc1c(N(C)CS(=O)(=O)O)c(=O)n(-c2ccccc2)n1C
Potency [1]: inactive
Potency [9]: inactive
Potency [14]: inactive

C=Cc1c(C)c2cc3[nH]c(cc4nc(cc5nc(cc1[nH]2)C(C)=C5CCC(=O)O)C(CCC(=O)O)=C4C)c(C)c3C=C
Potency [1]: inconclusive: 21.1 µM [cytotoxic, partial curve]
Potency [2]: inconclusive: 21.1 µM [cytotoxic, partial curve]
Potency [13]: inactive
Potency [7]: inconclusive: 8.41 µM [activator, partial curve]
Potency [9]: inconclusive: 43.8 µM [falling, partial curve]
Potency [10]: inconclusive: 26.8 µM [falling, single point]
Potency [15]: inconclusive: 11.9 µM [inhibitor, partial curve]

Cc1nn(C)c(Oc2ccccc2)c1/C=N/OCc1ccc(C(=O)OC(C)(C)C)cc1
Potency [1]: inconclusive: 0.0611 µM [cytotoxic, full curve]
Potency [2]: inconclusive: 0.0863 µM [cytotoxic, full curve]
Potency [13]: inconclusive: 0.0154 µM [falling, full curve]
Potency [7]: inconclusive: 6.11 µM [inhibitor, full curve]
Potency [14]: inconclusive: 5.66 µM [cytotoxic, partial curve]
Potency [11]: active: 0.0044 µM

CC(=O)c1ccc2c(c1)N(CCCN1CCC(CCO)CC1)c1ccccc1S2
Potency [1]: inactive
Potency [2]: inconclusive: 33.5 µM [cytotoxic, partial curve, poor fit]
Potency [3]: inconclusive: 33.5 µM [inhibitor, single point]
Potency [8]: inconclusive: 21.3 µM [cytotoxic, single point]
Potency [9]: inconclusive: 61.9 µM [activator, single point]

O=C(NCC1CN(c2ccc(N3CCOCC3=O)cc2)C(=O)O1)c1ccc(Cl)s1 (centres undefined)
Potency [1]: inconclusive: 16.8 µM [cytotoxic, single point]
Potency [13]: inconclusive: 11.9 µM [falling, partial curve]
Potency [15]: active: 23.7 µM

CCCCNc1ccc(C(=O)OCCOCCOCCOCCOCCOCCOCCOCCOCCOC)cc1
Potency [1]: inactive
Potency [7]: inactive
Potency [15]: inconclusive: 3.76 µM [inhibitor, full curve]
Potency [11]: inconclusive: 10.7 µM [cytotoxic, partial curve]

NC(=O)c1ncn([C@@H]2O[C@H](CO)[C@@H](O)[C@H]2O)c1N
Potency [1]: inconclusive: 13.3 µM [cytotoxic, single point]
Potency [9]: inactive
Potency [10]: inactive

COc1ccc(N=Nc2cc(C)c(N=Nc3ccc(S(=O)(=O)O)cc3)cc2OC)cc1
Potency [1]: inconclusive: 34.4 µM [cytotoxic, partial curve]
Potency [2]: inconclusive: 30.6 µM [cytotoxic, partial curve]
Potency [4]: inconclusive: 34.4 µM [cytotoxic]
Potency [7]: inconclusive: 30.6 µM [activator, partial curve, poor fit]
Potency [8]: inconclusive: 54.9 µM [cytotoxic]

CCN(Cc1ccccc1)c1ccccc1
Potency [2]: inconclusive: 27 µM [cytotoxic, partial curve]
Potency [3]: inconclusive: 67.8 µM [inhibitor, single point]
Potency [12]: inconclusive: 17 µM [activator, partial curve]
Potency [4]: inconclusive: 24 µM [cytotoxic, full curve]
Potency [8]: inconclusive: 54.3 µM [cytotoxic, single point]
Potency [9]: inconclusive: 88.7 µM [activator, partial curve]
Potency [10]: inactive
